By IC50 is meant the dose at which the fit gives 50% viability; fits outside the tested doses are given as limits. The AUC spans the tested range (256-fold, ending at the top dose) of the same fit; values near 1 show little effect. Any top dose called inferred comes from the curve model; the source does not state it.
Each cell line was assayed with O=C1NC(=O)/C(=C\c2ccc3nccnc3c2)S1 [AS605240] (assay: Viability of human cancer cell lines after 72 h of drug (GDSC screen)). Details: top dose inferred.
Description: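 Human cancer cell lines in 384-well plates, medium with 10% serum, drug for 72 h over a 256-fold dose range (nine 2-fold or five 4-fold steps up to the top dose). Adherent lines were fixed and stained with the nucleic acid dye Syto60, suspension lines read with resazurin; signal relative to control wells, capped at 0 and 100%. One two-parameter sigmoid per drug and line, fitted in a mixed model over all curves with the slope shared within a line.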
For “A4-Fuk (B-cell lymphoma, suspension, top dose 20 µM)”, the AUC was 0.878 and the IC50 was greater than 20 µM.
Cell Line “A101D (melanoma, adherent, top dose 20 µM)” has an AUC of 0.928 and an IC50 greater than 20 µM.
In the case of A172 (glioma, adherent, top dose 20 µM), the AUC is reported as 0.9 and the IC50 is reported as greater than 20 µM.
“A204 (rhabdomyosarcoma, adherent, top dose 20 µM)” gave an AUC of 0.839 and an IC50 of 19.9 µM.
For “A253 (head and neck, adherent, top dose 20 µM)”, the AUC was 0.977 and the IC50 was greater than 20 µM.
A388 (skin, adherent, top dose 20 µM) showed an AUC of 0.803 and an IC50 of 11.7 µM.
“A427 (non-small cell lung carcinoma, adherent, top dose 20 µM)” gave an AUC of 0.878 and an IC50 greater than 20 µM.
A431 (skin, adherent, top dose 20 µM) was tested, and the AUC was 0.765 and the IC50 was 7.02 µM.
With A498 (kidney, adherent, top dose 20 µM) the AUC was 0.936 and the IC50 was greater than 20 µM.
“A673 (rhabdomyosarcoma, adherent, top dose 20 µM)” was tested, and the AUC was 0.859 and the IC50 was 14 µM.
Work on A704 (kidney, adherent, top dose 20 µM) yielded an AUC of 0.971 and an IC50 greater than 20 µM.
“A2058 (melanoma, adherent, top dose 20 µM)” showed an AUC of 0.905 and an IC50 greater than 20 µM.
Work on “A2780 (ovary, semi-adherent, top dose 20 µM)” yielded an AUC of 0.506 and an IC50 of 1.3 µM.
“ABC-1 (lung adenocarcinoma, adherent, top dose 20 µM)” gave an AUC of 0.717 and an IC50 of 5.91 µM.
For ACHN (kidney, adherent, top dose 20 µM), the AUC was 0.869 and the IC50 was greater than 20 µM.
AGS (stomach, adherent, top dose 20 µM) showed an AUC of 0.613 and an IC50 of 2.47 µM.
“ALL-PO (lymphoblastic leukaemia, suspension, top dose 20 µM)” showed an AUC of 0.41 and an IC50 of 0.696 µM.
Work on “ALL-SIL (T-cell leukaemia, suspension, top dose 20 µM)” yielded an AUC of 0.634 and an IC50 of 2.76 µM.
In the case of “AM-38 (glioma, semi-adherent, top dose 20 µM)”, the AUC is reported as 0.74 and the IC50 is reported as 6.16 µM.
“AMO-1 (haematopoietic neoplasm, suspension, top dose 20 µM)” showed an AUC of 0.865 and an IC50 of 13.6 µM.
Cell Line “AN3-CA (endometrium, adherent, top dose 20 µM)” has an AUC of 0.932 and an IC50 greater than 20 µM.
“ARH-77 (myeloma, suspension, top dose 20 µM)” was tested, and the AUC was 0.766 and the IC50 was 7.14 µM.
Cell Line “ASH-3 (thyroid, adherent, top dose 20 µM)” has an AUC of 0.988 and an IC50 greater than 20 µM.
For “ATN-1 (T-cell lymphoblastic leukaemia, suspension, top dose 20 µM)”, the AUC was 0.728 and the IC50 was 5.28 µM.
Work on “AU565 (breast, adherent, top dose 20 µM)” yielded an AUC of 0.885 and an IC50 greater than 20 µM.
“AsPC-1 (pancreas, adherent, top dose 20 µM)” was tested, and the AUC was 0.8 and the IC50 was 19.5 µM.
In the case of “BB30-HNC (head and neck, adherent, top dose 20 µM)”, the AUC is reported as 0.607 and the IC50 is reported as 2.45 µM.
Cell Line “BB49-HNC (head and neck, adherent, top dose 20 µM)” has an AUC of 0.974 and an IC50 greater than 20 µM.
With “BB65-RCC (kidney, adherent, top dose 20 µM)” the AUC was 0.969 and the IC50 was greater than 20 µM.
With “BC-1 (B-cell lymphoma, suspension, top dose 20 µM)” the AUC was 0.738 and the IC50 was 5.26 µM.
With “BC-3 (B-cell lymphoma, suspension, top dose 20 µM)” the AUC was 0.937 and the IC50 was greater than 20 µM.
“BCPAP (thyroid, adherent, top dose 20 µM)” gave an AUC of 0.973 and an IC50 greater than 20 µM.
For “BE2-M17 (neuroblastoma, adherent, top dose 20 µM)”, the AUC was 0.888 and the IC50 was greater than 20 µM.
“BE-13 (lymphoblastic leukaemia, suspension, top dose 20 µM)” gave an AUC of 0.869 and an IC50 of 16.4 µM.
Work on “BEN (non-small cell lung carcinoma, adherent, top dose 20 µM)” yielded an AUC of 0.94 and an IC50 greater than 20 µM.
“BFTC-905 (bladder, adherent, top dose 20 µM)” gave an AUC of 0.765 and an IC50 of 6.38 µM.
“BFTC-909 (kidney, adherent, top dose 20 µM)” gave an AUC of 0.973 and an IC50 greater than 20 µM.
Work on “BHT-101 (thyroid, adherent, top dose 20 µM)” yielded an AUC of 0.826 and an IC50 of 12.7 µM.
With “BHY (head and neck, adherent, top dose 20 µM)” the AUC was 0.716 and the IC50 was 5.1 µM.
“BICR10 (head and neck, adherent, top dose 20 µM)” gave an AUC of 0.935 and an IC50 greater than 20 µM.
“BICR22 (head and neck, adherent, top dose 20 µM)” was tested, and the AUC was 0.461 and the IC50 was 0.961 µM.
“BICR31 (head and neck, adherent, top dose 20 µM)” was tested, and the AUC was 0.86 and the IC50 was 17.1 µM.

From the supplement of paper PMC4967469
